≈ marks a conversion by molar mass, not a printed value.

The assay has as its system vancomycin resistant S. aureus (VRSA) NARSA Strain ID VRS10. The assay can be described thus: MIC micro dilution against VRSA. The settings on record: Staphylococcus aureus, read-out: VRSA MIC (μM).
As a reminder, the MIC is the lowest concentration found to suppress growth. With `CCCCCCCc1ccc(NS(=O)(=O)c2ccc(O)c(C(=O)O)c2)cc1` [Compound 2e, 5-[N-(4-heptylphenyl)sulfamoyl]-2-hydroxybenzoic acid], the MIC worked out at 64 µM (≈ 25.1 µg/mL).
Take `CCCCCCCCCCc1ccc(NS(=O)(=O)c2ccc(O)c(C(=O)O)c2)cc1` [Compound 2f, 5-[N-(4-decylphenyl)sulfamoyl]-2-hydroxybenzoic acid]: the MIC was determined as 16 µM (≈ 6.94 µg/mL).
As to `CC(C)CCCCc1ccc(NS(=O)(=O)c2ccc(O)c(C(=O)O)c2)cc1` [Compound 2j, 2-hydroxy-5-[N-(4-(5-methylhexyl)phenyl)sulfamoyl]benzoic acid], the MIC turned out to be 32 µM (≈ 12.5 µg/mL).
In the case of `O=C(O)c1cc(S(=O)(=O)Nc2ccc(CCC3CCCCC3)cc2)ccc1O` [Compound 2l, 5-[N-(4-(2-cyclohexylethyl)phenyl)sulfamoyl]-2-hydroxybenzoic acid], the MIC is 32 µM (≈ 12.9 µg/mL).

Values taken from patent US9604925B2, “Class II HMG-CoA reductase inhibitors and methods of use” (Purdue Research Foundation, priority 2012, dated 2017).
